# The list shows a part of the results.
# B1: PX14367B-bvu-516-23-516 (Bacteroides vulgatus) (protein)
# chain: LDTIPTTYVDAGSVFGKTGDAEKVLNGGWNYLMETFNSYANPGYGAMLRANDAMGSDVVLNSKYGFRTHNEFSAIYGKGGTNTLSWLLAYRVINDCNGVLDNIDAAEGTQADRNRIKGQALALRGFLYLHLASCYSFAIDKDPDAVCAPIYTQSTDETIAAEGKPASSVSEVYAQSINDLEEALELIPETYVRDAKHKIDNEVVLGILSRACLYARQWEKAKTYSDKLLAKDNYLMTESEYKAGFNSVDNKEWIWGHAQTNDQSNASYQFHYLDTTTKGSYYYSFNVDPYFRDLFEDGDYRKEMLFWATDPGADVESAAYVWMRNSKFRFRDIENQLGDIVLMRVAEIYLINAEAKAHLNDPDAINKLNDLKTARGAKTIHTNLSQQDLLETIWLERRKELWGEGFSLIDIIRNQQTVVRNAYPEGPIDYIYTDENGQTHTLKKKTQGHRFFNFPDKSAFCPNSKYYLYRITDSEELANKNLYKDHPKLSIYTK
# Assays:
# Assay in all cases: glycan array binding signal (z-score within array); higher = stronger binding
# Settings in all cases: glycan notation: IUPAC condensed, linker removed
# [1] = target: Neu5Ac(a2-6)Gal(b1-4)GlcNAc(b1-2)Man(a1-3)[Man(a1-6)]Man(b1-4)GlcNAc(b1-4)GlcNAc
# Method in brief: (§1)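 The Consortium for Functional Glycomics database supplied 3228 glycan arrays, of which those lacking an available protein sequence were dropped. The binding signal, a within-array Z-score, was averaged across arrays of the same protein sequence and across linkers. Negative scores can be read as non-binding.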
# [2] = target: Neu5Ac(a2-6)Gal(b1-4)GlcNAc(b1-2)Man(a1-3)[Neu5Ac(a2-3)Gal(b1-4)GlcNAc(b1-2)Man(a1-6)]Man(b1-4)GlcNAc(b1-4)GlcNAc
# Method in brief: as §1
# [3] = target: Neu5Ac(a2-6)Gal(b1-4)GlcNAc(b1-2)Man(a1-3)[Neu5Ac(a2-6)Gal(b1-4)GlcNAc(b1-2)Man(a1-6)]Man(b1-4)GlcNAc(b1-4)GlcNAc
# Method in brief: as §1
# [4] = target: Neu5Ac(a2-6)Gal(b1-4)GlcNAc(b1-2)Man(a1-3)[Neu5Ac(a2-6)Gal(b1-4)GlcNAc(b1-2)Man(a1-6)]Man(b1-4)GlcNAc(b1-4)[Fuc(a1-6)]GlcNAc
# Method in brief: as §1
# [5] = target: Neu5Ac(a2-6)Gal(b1-4)GlcNAc(b1-2)Man(a1-6)Man(b1-4)GlcNAc(b1-4)GlcNAc
# Method in brief: as §1
# [6] = target: Neu5Ac(a2-6)Gal(b1-4)GlcNAc(b1-2)Man(a1-6)[Gal(b1-4)GlcNAc(b1-2)Man(a1-3)]Man(b1-4)GlcNAc(b1-4)GlcNAc
# Method in brief: as §1
# [7] = target: Neu5Ac(a2-6)Gal(b1-4)GlcNAc(b1-2)Man(a1-6)[GlcNAc(b1-2)Man(a1-3)]Man(b1-4)GlcNAc(b1-4)GlcNAc
# Method in brief: as §1
# [8] = target: Neu5Ac(a2-6)Gal(b1-4)GlcNAc(b1-2)Man(a1-6)[Man(a1-3)]Man(b1-4)GlcNAc(b1-4)GlcNAc
# Method in brief: as §1
# [9] = target: Neu5Ac(a2-6)Gal(b1-4)GlcNAc(b1-2)[Neu5Ac(a2-6)Gal(b1-4)GlcNAc(b1-4)]Man(a1-3)[GlcNAc(b1-4)][Neu5Ac(a2-6)Gal(b1-4)GlcNAc(b1-2)[Neu5Ac(a2-6)Gal(b1-4)GlcNAc(b1-6)]Man(a1-6)]Man(b1-4)GlcNAc(b1-4)GlcNAc
# Method in brief: as §1
# [10] = target: Neu5Ac(a2-6)Gal(b1-4)GlcNAc(b1-2)[Neu5Ac(a2-6)Gal(b1-4)GlcNAc(b1-4)]Man(a1-3)[GlcNAc(b1-4)][Neu5Ac(a2-6)Gal(b1-4)GlcNAc(b1-4)Man(a1-6)]Man(b1-4)GlcNAc(b1-4)GlcNAc
# Method in brief: as §1
# [11] = target: Neu5Ac(a2-6)Gal(b1-4)GlcNAc(b1-2)[Neu5Ac(a2-6)Gal(b1-4)GlcNAc(b1-6)]Man(a1-6)[Neu5Ac(a2-6)Gal(b1-4)GlcNAc(b1-2)Man(a1-3)][GlcNAc(b1-4)]Man(b1-4)GlcNAc(b1-4)GlcNAc
# Method in brief: as §1
# [12] = target: Neu5Ac(a2-6)Gal(b1-4)GlcNAc(b1-3)Gal(b1-3)GlcNAc
# Method in brief: as §1
# [13] = target: Neu5Ac(a2-6)Gal(b1-4)GlcNAc(b1-3)Gal(b1-4)GlcNAc
# Method in brief: as §1
# [14] = target: Neu5Ac(a2-6)Gal(b1-4)GlcNAc(b1-3)Gal(b1-4)GlcNAc(b1-2)Man(a1-3)[Neu5Ac(a2-6)Gal(b1-4)GlcNAc(b1-3)Gal(b1-4)GlcNAc(b1-2)Man(a1-6)]GalNAc
# Method in brief: as §1
# [15] = target: Neu5Ac(a2-6)Gal(b1-4)GlcNAc(b1-3)Gal(b1-4)GlcNAc(b1-3)Gal(b1-4)GlcNAc
# Method in brief: as §1
# [16] = target: Neu5Ac(a2-6)Gal(b1-4)GlcNAc(b1-3)Gal(b1-4)GlcNAc(b1-3)Gal(b1-4)GlcNAc(b1-2)Man(a1-3)[Neu5Ac(a2-6)Gal(b1-4)GlcNAc(b1-3)Gal(b1-4)GlcNAc(b1-3)Gal(b1-4)GlcNAc(b1-2)Man(a1-6)]GalNAc
# Method in brief: as §1
# [17] = target: Neu5Ac(a2-6)Gal(b1-4)GlcNAc(b1-3)Gal(b1-4)GlcNAc(b1-3)GalNAc
# Method in brief: as §1
# [18] = target: Neu5Ac(a2-6)Gal(b1-4)GlcNAc(b1-3)Gal(b1-4)GlcNAc(b1-3)[Neu5Ac(a2-6)Gal(b1-4)GlcNAc(b1-3)Gal(b1-4)GlcNAc(b1-6)]GalNAc
# Method in brief: as §1
# [19] = target: Neu5Ac(a2-6)Gal(b1-4)GlcNAc(b1-3)Gal(b1-4)GlcNAc(b1-6)[Gal(b1-3)]GalNAc
# Method in brief: as §1
# [20] = target: Neu5Ac(a2-6)Gal(b1-4)GlcNAc(b1-3)Gal(b1-4)[Fuc(a1-3)]GlcNAc(b1-3)Gal(b1-4)[Fuc(a1-3)]GlcNAc
# Method in brief: as §1
# [21] = target: Neu5Ac(a2-6)Gal(b1-4)GlcNAc(b1-3)GalNAc
# Method in brief: as §1
# [22] = target: Neu5Ac(a2-6)Gal(b1-4)GlcNAc(b1-3)[Neu5Ac(a2-6)Gal(b1-4)GlcNAc(b1-6)]GalNAc
# Method in brief: as §1
# [23] = target: Neu5Ac(a2-6)Gal(b1-4)GlcNAc(b1-6)GalNAc
# Method in brief: as §1
# [24] = target: Neu5Ac(a2-6)Gal(b1-4)GlcNAc(b1-6)[Gal(b1-3)GlcNAc(b1-3)]Gal(b1-4)Glc
# Method in brief: as §1
# [25] = target: Neu5Ac(a2-6)Gal(b1-4)GlcNAc(b1-6)[Gal(b1-3)]GalNAc
# Method in brief: as §1
# [26] = target: Neu5Ac(a2-6)Gal(b1-4)GlcNAc6S
# Method in brief: as §1
# Neu5Ac(a2-6)GalNAc = target: Neu5Ac(a2-6)GalNAc
# Method in brief: as §1
# [27] = target: Neu5Ac(a2-6)GalNAc(b1-4)GlcNAc
# Method in brief: as §1
# [28] = target: Neu5Ac(a2-6)GalNAc(b1-4)GlcNAc6S
# Method in brief: as §1
# [29] = target: Neu5Ac(a2-6)GlcNAc(b1-4)GlcNAc
# Method in brief: as §1
# [30] = target: Neu5Ac(a2-6)GlcNAc(b1-4)GlcNAc(b1-4)GlcNAc
# Method in brief: as §1
binder,measurement,setting,value
B1,glycan array binding signal (z-score),[1],-0.058
same,glycan array binding signal (z-score),[2],-0.304
same,glycan array binding signal (z-score),[3],-0.224
same,glycan array binding signal (z-score),[4],-0.238
same,glycan array binding signal (z-score),[5],-0.321
same,glycan array binding signal (z-score),[6],-0.404
same,glycan array binding signal (z-score),[7],-0.35
same,glycan array binding signal (z-score),[8],4.55
same,glycan array binding signal (z-score),[9],-0.166
same,glycan array binding signal (z-score),[10],-0.246
same,glycan array binding signal (z-score),[11],3.76
same,glycan array binding signal (z-score),[12],-0.255
same,glycan array binding signal (z-score),[13],-0.21
same,glycan array binding signal (z-score),[14],0.021
same,glycan array binding signal (z-score),[15],-0.33
same,glycan array binding signal (z-score),[16],0.119
same,glycan array binding signal (z-score),[17],-0.19
same,glycan array binding signal (z-score),[18],-0.043
same,glycan array binding signal (z-score),[19],0.683
same,glycan array binding signal (z-score),[20],0.385
same,glycan array binding signal (z-score),[21],-0.386
same,glycan array binding signal (z-score),[22],0.372
same,glycan array binding signal (z-score),[23],-0.262
same,glycan array binding signal (z-score),[24],-0.158
same,glycan array binding signal (z-score),[25],-0.186
same,glycan array binding signal (z-score),[26],-0.281
same,glycan array binding signal (z-score),Neu5Ac(a2-6)GalNAc,-0.324
same,glycan array binding signal (z-score),[27],-0.363
same,glycan array binding signal (z-score),[28],-0.208
same,glycan array binding signal (z-score),[29],-0.283
same,glycan array binding signal (z-score),[30],-0.141
